# Assay results published in PubChem BioAssay AID504467 (National Center for Advancing Translational Sciences (NCATS), 2011).
# The campaign covered roughly 330,000 compounds. About 7,700 (2.3%) were called active. About 26% were inconclusive and are not listed. Calls come from the whole dose curve; as a rule, active = well fitted inhibition curve with a large enough effect; inconclusive = small, poorly fitted or top-dose-only effect, or effect the other way; inactive = flat fitted curve, though single readings scatter. The list shows a part of the results, in another mix than the full data.
# Assay: qHTS screen for small molecules that inhibit ELG1-dependent DNA repair in human embryonic kidney (HEK293T) cells expressing luciferase-tagged ELG1; note: nearly all actives have a fitted effect of over 55% in size
# Settings: HEK293T ELG1-luciferase reporter, luminescence, 16 h, DNA damage induced by 5-fluorouridine; series mostly up to 46.1 µM; activity change, negative = inhibition: at the top concentration
# Text: NIH Molecular Libraries Probe Production Network [MLPCN] NIH Chemical Genomics Center [NCGC] MLPCN Grant: 1 R03 MH092164-01 Assay Provider: Kyungjae Myung, NHGRI, NIH Keywords: MLPCN, qHTS, NCGC, genotoxicity, cancer Assay Overview: Cancer cells divide rapidly compared to normal cells in the body. During cell division, cancer cells need to duplicate their genome by DNA replication. The failure of genome duplication leads to cancer cells' death. Therefore, inhibitors of DNA replication could specifically kill cancer cells. Based on this concept, many chemotherapeutic agents were developed and have been used to treat cancer patients. However, there are a limited number of agents available in the clinical setting, and some of those that do exist have low efficacy and severe side effects. Therefore, if we can find the compounds that effectively block DNA replication either by directly damaging DNA or by inhibiting other cellular mechanisms, the options for cancer treatment will be broadened. With this in mind, we developed a quantitative high-throughput ELG1-luciferase reporter gene assay. Small molecules that specifically block ELG1 function in response to DNA damage can be identified by monitoring the suppression of luciferase activity. Since ELG1 defines a pathway for repairing DNA damage, agents blocking ELG1 function can be used to sensitize cancer cells to chemotherapeutic agents whose mechanism of action involves the induction of DNA damage.
# Assay Protocol Summary: For genotoxicity screening, 2,000 cells in 4 uL/well were dispensed into white, solid-bottom 1536-well plates using a solenoid-based dispenser. Following transfer of 1 uL 5-Fluorouridine and 23 nL compound or DMSO vehicle by a pin tool, the plates were incubated 16 hr at 37 °C and 5% CO2. 5 ul ONE-Glo (Promega) was then added to each plate and following a 30 min incubation at room temperature, luciferase activity was quantified on a ViewLux CCD-based plate reader.
# % is set by controls: 0 for no effect and ±100 for the full control effect; potency is the fitted concentration of half-maximal effect.
Compound,"activity change, negative = inhibition",Potency
COC1=CC2C3Cc4ccc(OC)c(O)c4C2(CCN3C)CC1=O (centres undefined),inactive: 10.3%,–
C[C@]12CCC3C(CC[C@H]4C[C@H](O)CC[C@]34C)C1C[C@@H](O)[C@@H]2O (some centres undefined),inactive: 0%,–
CCSc1nnc(C(N)Cc2ccccc2)o1 (centres undefined),inactive: 0.167%,–
c1cc2c(cc1[C@H]1OC[C@H]3[C@@H]1CO[C@@H]3c1ccc3c(c1)OCO3)OCO2,inactive: -9.44%,–
COc1ccc(CN2C(=O)NC(=O)/C(=C\c3ccc(OC)c(OC)c3OC)C2=O)cc1,inactive: 15.8%,–
O=C(CCCCCCCCCCC(=O)NCc1cccnc1)NCc1cccnc1,–,active: 3.66 µM
COC(=O)c1nc(-c2ccc3c(n2)C(=O)C(N)=C(OC)C3=O)c(N)c(-c2ccc(OC)c(OC)c2O)c1C,–,active: 2.06 µM
C[C@]12CCC3C(CC[C@H]4C[C@@H](O)CC[C@]34C)C1C[C@@H](Br)[C@H]2O (some centres undefined),inactive: -3.08%,–
O=C1NCCOC(=O)[C@@H](Cc2ccc(F)cc2)CC/C=C/C[C@@H]1CC(=O)N(CCO)Cc1ccccc1,inactive: -22.3%,–
C=CCN1C(=O)/C(=C/c2ccc(N3CCOCC3)o2)C(=O)NC1=S,inactive: 6.87%,–
C=CC[C@@H](CC(=O)N[C@@H](CO)Cc1ccccc1)C(=O)NCCOC(=O)[C@@H](CC=C)Cc1ccc(F)cc1,inactive: -0.0548%,–
Cc1ccccc1-n1c(O)c(/C=N/c2nccs2)c(=O)[nH]c1=O,inactive: -12.5%,–
C[C@]12CCC3C(CC[C@H]4C[C@@H](O)CC[C@]34C)C1C[C@@H](Br)[C@@H]2O (some centres undefined),inactive: 24.5%,–
CN(C)[C@@H]1C(=O)C(C(N)=O)=C(O)[C@@]2(O)C(=O)C3=C(O)c4c(O)cccc4[C@@](C)(O)[C@H]3[C@H](O)[C@@H]12,–,inactive
COc1ccc2c(c1OC)C(=O)O[C@H]2[C@@H]1c2cc3c(cc2CCN1C)OCO3,inactive: -6.06%,–
COC(=O)[C@H]1C[C@@H]1[C@H](NP(=O)(c1ccccc1)c1ccccc1)c1ccccc1,inactive: 13.3%,–
COc1cc2c(cc1O)CC1c3c(cc(O)c(OC)c3-2)CCN1C (centres undefined),inactive: -50.1%,–
CC(=O)OC1C2CCCC1C(N1CCCC1)CC2 (centres undefined),inactive: 9.49%,–
COC(=O)C1C(OC(=O)c2ccccc2)CC2CCC1N2C (centres undefined),inactive: -12.5%,–
COc1ccc2c(c1OC)C(=O)O[C@@H]2[C@H]1c2cc3c(cc2CCN1C)OCO3,inactive: 8.48%,–
Cc1ccc(/C=C2/C(=O)NC(=O)N(CCc3ccc(F)cc3)C2=O)o1,inactive: -1.54%,–
C[C@]12CCC3C(CC[C@H]4C[C@H](O)CC[C@]34C)C1C[C@H](O)[C@@H]2O (some centres undefined),inactive: -22.5%,–
ClC1C(Cl)C(Cl)C(Cl)C(Cl)C1Cl (centres undefined),inactive: 5.52%,–
COc1ccc(CN2C(=O)NC(=O)/C(=C/c3cc(OC)c(OC)c(OC)c3)C2=O)cc1,inactive: 16.4%,–
